# Experimental data taken from the RNAGym collection of RNA variant scans (doi:10.7554/elife.90254).
# The source gives no read counts; variants with many changes may rest on few reads.
# B1: LINE1-mini (parent)
# chain: GGCAGAGCUCAACACAGCGUGGCAAAGUGGCUGUGGCUAGACUGCC
# Variants of: B1
# Assay: self-cleavage, relative activity (ratio to wild type); higher = more cleavage; in vitro, sequencing; the parent is a self-cleaving ribozyme
row,Variant,self-cleavage
1,AGUAAAGGUCAACACAGCGGGGCAAAGUGGCUGUGGCUAGACUGCC [G1A C3U G5A C8G U20G],2.19
2,AGUAGAGCUCAACACAGCGUGGCAAAGUUGCUGUGGCUAGACUGCC [G1A C3U G29U],0.49
3,AGUAGAGCUAAACACAGCGUGGCAAAGUGGCUGUGGCGAGACUACC [G1A C3U C10A U38G G44A],0.15
4,AGAAGAGCUCAACACAACGUGGCAAUGUGGCUGUGGCUAGACUGCC [G1A C3A G17A A26U],1.48
5,AGGAGAGCUCAACACAGAGUGGCAAAGUGGCUGUGGAUAGACUGCC [G1A C3G C18A C37A],0.47
6,AGAUGAGCUCAACACAGCGUGGCAAAGUGGCUGUGGCUAGACUGCC [G1A C3A A4U],2.1
7,AGUAGAGCUCUACACAGCGUGGCAAAGUGGCUGUGGCUAGACUGCC [G1A C3U A11U],0.13
8,AGUUGAGCUCAACACAGCGGGGCAAAGUGGCUGUGGCUAGACUGCC [G1A C3U A4U U20G],0.39
9,AGCAGAGAUUAACACAGCGUGGCAAAGUGGCUGUGGCUAGACUGCC [G1A C8A C10U],0.08
10,AGAAGAGCUCAAAACAGCGUGGCAAAGCGGCUGUGGCUAGACUGCC [G1A C3A C13A U28C],0.9
11,AGCAGAGAUCCACACAGCGUGGCAAAGUGGCUGUGUCUAGACCGCC [G1A C8A A11C G36U U43C],0.01
12,AGAAGAGCUCAACACAGCGGGGCAAAGUGGCUGUGGCUAGACUGCA [G1A C3A U20G C46A],1.03
13,AGCAGAGAUCAACACAGCGUGGCAAAGUGGCUGUGGCUAGACUGCA [G1A C8A C46A],1.41
14,AGUAGAGCUCAACACAGCGUGUCGAACUGACUCUGGCUAGACUGCC [G1A C3U G22U A24G G27C G30A G33C],0.02
15,AGAAGAGCUCAACACAGCGGGGCAAAGUGGCUGUGGCUAUACUGCC [G1A C3A U20G G40U],1.12
16,AGUAUAGCUCAACACAGCGUGGCAAAGUAGCUGUGGCUAGACUGCC [G1A C3U G5U G29A],0.14
17,AGGAGAGCUAAACACAGCGGGGCAAAGUAGCUGUGGCUAGACUGCC [G1A C3G C10A U20G G29A],0.09
18,AGGAGAGCUCAACACCGCGUGGCAAAGUGGCUGUGGCUAGACUGCC [G1A C3G A16C],0.19
19,AGCAGAGAUCAACACAGCGUGGCCUAGUGGCUGCGGCUAGAAUGCC [G1A C8A A24C A25U U34C C42A],0.63

row,Variant,self-cleavage
1,AGGAGAGCUCAACACAGCGUGGCAAAGUGGCUGUCGCUAGAAUGCC [G1A C3G G35C C42A],0.06
2,AGAAGAGCUCAACACAGCGUGGCAAAGUGGCUGUAGUUAGACUGCC [G1A C3A G35A C37U],1.1
3,AGGAAAGCGCAACACAGCGUGACAAAGUGGCUGUGGCUAGACUGCC [G1A C3G G5A U9G G22A],0.39
4,AGCAGAGAUCAACACAGCGUGGCAAAGUGGCUGUGGCUAGAACGCC [G1A C8A C42A U43C],0.25
5,AGCAGAGAUCAACACAGCGUGGCAAAGGGGCUGUGGCUAGACUGCC [G1A C8A U28G],0.46
6,AGCAGAGGUCAACACGGCGUGACAAAGUGGCUUUGGCGAGACAGCC [G1A C8G A16G G22A G33U U38G U43A],0.05
7,AGAAGUGCUCUACACAGCGUGGCAAAGUGGCUGUGGCUAGACUGCC [G1A C3A A6U A11U],0.12
8,AGAAGAGCUCAACACAACGUGGCAAAGUGGCUGUGGCUAGACUGCC [G1A C3A G17A],1.6
9,AGUAGAGAUAAACACAGCGUGGCAAAGUGGCUGUGGCUAGACUGCC [G1A C3U C8A C10A],0.13
10,AGGAGAGCUCAAACCAGCGUAGCAAAGUGGCUGUGCCUAGACUGCC [G1A C3G C13A A14C G21A G36C],0.22
11,AGAAGAGCUCAACACAGCGUGGAAAAGUGGCUGUGGCUACACUGCG [G1A C3A C23A G40C C46G],1.6
12,AGGACAGCUCAACACAGCGUGUAAAAGUGGCGGUGGCCAGACUGCC [G1A C3G G5C G22U C23A U32G U38C],0.12
13,AGAAGAGCUCAACACAGCGUGGAAAUGCGGCUGUCGCUAGACUGCC [G1A C3A C23A A26U U28C G35C],2.42
14,AGCAGAGGUCAACGCAGCGUGGCAAAGUGGCUGUGGCUAGACUGCC [G1A C8G A14G],0.16
15,AGCAGAGCUCAACACAGCGUGGCAAUGCGGCUGUGGCUAGACUGCC [G1A A26U U28C],0.1
16,AGCAGAGAUCAACACAGCGUGGCAAAGUGGCUGUGGCUAAACUGCC [G1A C8A G40A],0.48
17,AGGAGAGCUCAACACAGCGUGGGAAAGUUGCUGUGGCUAGACGGUC [G1A C3G C23G G29U U43G C45U],0.05
18,AGGAGAGCUAAACACAGCGUGGCCAAGUGGCUGUGGCUAGACUGCC [G1A C3G C10A A24C],0.14
19,AGUAGAGCUCAACACAGCGUGGCAAAGUGGCUGUGGCCAGACUGCC [G1A C3U U38C],0.48

row,Variant,self-cleavage
1,AGAAGAGCUAAACACAGCGUGGCAAAGUGGCUGUGGCUAGACUGCC [G1A C3A C10A],0.17
2,AGGAGUGCUCAACACAGCGUGGCAAAGUGGUUGUGGCUAGACUGCC [G1A C3G A6U C31U],0.66
3,AGCAGAGCUCAACACAGCGUGGCAAUGUGGCAGUGGCUAGACUGCC [G1A A26U U32A],0.01
4,AGAAGAGCUCAACACAGCGUGGCAUAGUGGCUGUGGCUAAACUGCC [G1A C3A A25U G40A],1.24
5,AGCAGAGAUCAACACAGCGUGGCAAAGUGGCUGUGGCUAGACUCCC [G1A C8A G44C],0.27
6,AGCAGAGAUCAACACAGCGUGGCAAAGCGGCUGUGGCUAGCCUGCC [G1A C8A U28C A41C],0.39
7,AGUAGAGCUCUACACAGCGUGGCAAAGUCGCUGUGACUAGACUGCC [G1A C3U A11U G29C G36A],0.08
8,AGAAGAACUCAACACAGCGUGGCAAAGUGGCUGUGGCUAAACAGCC [G1A C3A G7A G40A U43A],1.34
9,AGAAGAGCUUAACACAGAGUAGCAAAGUGGCUAUGGCUAGACUGCC [G1A C3A C10U C18A G21A G33A],0.71
10,AGAAGAGCUCAGCAAAGCGUCGCAAAGUGGCUGUGGUUAGACUGCC [G1A C3A A12G C15A G21C C37U],0.45
11,AGAAGAGCUCAACACAGCGUGGCAAAGUGGCUGAGUCUAGACCGCC [G1A C3A U34A G36U U43C],0.65
12,AGCAGAGAUCAACACCGGGUGGCAAAGUGGCUGUGGCUAGACUGCC [G1A C8A A16C C18G],0.14
13,AGCAGAGAUCAACACAGCGUGGCAAAGUGGCUGUGGCUGGACUGCC [G1A C8A A39G],1.18
14,AGGAGAGCUCAACACAGCGUGGCAAAGUGGCUGUGGCUAGACUGUC [G1A C3G C45U],0.46
15,AGCAGAGGUCCACACAGCGUGGCAAAGUGGCUGUUGCUAGACUGCC [G1A C8G A11C G35U],0.02
16,AGCAGAGCUCAACACAGCGUGGCAAUGUGGCUUUGGCUAGACUGCC [G1A A26U G33U],0.06
17,AGUAGAGCUAAACACAGCGUGGGGAAGUGGCUGUGGCUAGACUGCC [G1A C3U C10A C23G A24G],0.11
18,AGUAGAGCUCAUCACGGCGUGGCAAAGUAGCUAUGGCUAGACUGCC [G1A C3U A12U A16G G29A G33A],0.04
